PubChem BioAssay AID493208 (National Center for Advancing Translational Sciences (NCATS), 2011)
Screen size: about 44,000 compounds; about 340 (0.77%) were called active. About 5% were inconclusive and are not listed. The call rests on the fitted dose curve; in most records, active means well fitted inhibition curve with a large enough effect; inconclusive means small, poorly fitted or top-dose-only effect; inactive means flat fitted curve, though single readings scatter. This is one part of the list.

Experiment: Acumen qHTS Assay for Inhibitors of the mTORC1 Signaling Pathway in MEF (Tsc2-/-, p53-/-) Cells: Sytravon;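 further: plate controls were DMSO for no effect and rapamycin for full effect; nearly all actives have a fitted effect of over 50% in size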
Conditions: phospho-rpS6 immunofluorescence/PI, 24 h; series mostly up to 38.3 µM; activity change, negative = inhibition: at the top concentration
Summary of the method: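 Readout is phospho-S6 Alexa 488 signal normalized to PI per well, reported as % active cells with thresholds set from rapamycin (7.5 nM) and DMSO controls. Cells: Tsc2-/-, p53-/- MEFs, 24 hrs compound at 37 C; PI cell number serves as viability.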
In the case of `Cc1c(Cl)cccc1NC(=O)c1noc2c1CCCC2`, the “activity change, negative = inhibition” value was inactive: 0.459%.
For `CCn1c(C)c(C)c2cc(C(=O)NCCCN3CCCCC3)ccc21`, the “activity change, negative = inhibition” value was inactive: -2.41%.
In the case of `Cc1ccc(C)c(N2CCN(Cc3nnc(-c4ccc5c(c4)OCO5)o3)CC2)c1`, the “activity change, negative = inhibition” value was inactive: 2.49%.
For `Cn1c(=O)oc2cc(S(=O)(=O)NC(Cc3ccccc3)C(=O)NCc3ccc(F)cc3)ccc21` (stereo not drawn), the “activity change, negative = inhibition” value was inactive: -0.849%.
In the case of `COc1ccccc1OC(C)C(=O)Nc1c(C(=O)c2ccc(Cl)cc2)oc2ccccc12` (stereo not drawn), the “activity change, negative = inhibition” value was inactive: 1.48%.
With `CCC(=O)N1c2ccccc2CC1C(=O)NCCN1CCN(c2cccc(C(F)(F)F)c2)CC1` (stereo not drawn) the “activity change, negative = inhibition” value was inactive: 22.3%.
For `COc1cccc(CNC(=O)c2ccc3c(c2)nnn3C2CCCC2)c1`, the “activity change, negative = inhibition” value was inactive: 4.23%.
With `Cc1ccc(N(CC(=O)NCc2ccc(F)cc2)S(=O)(=O)c2c(C)nn(C)c2C)cc1` the “activity change, negative = inhibition” value was inactive: -4.14%.
For `CCCCSCCCNC(=O)c1cn(C)c2ccc(S(=O)(=O)N3CCCCC3)cc2c1=O`, the “activity change, negative = inhibition” value was inactive: -2.62%.
In the case of `COc1ccc(-n2nc(C(=O)Nc3ccc(C)cn3)c3c4ccccc4n(C)c3c2=O)cc1`, the “activity change, negative = inhibition” value was inactive: -1.04%.
In the case of `Cc1ccc(-n2cc(-c3ccccc3)nc2S(=O)(=O)CC(=O)Nc2ccc(F)cc2)cc1`, the “activity change, negative = inhibition” value was inactive: -17.8%.
For `O=C(CNC(=O)c1ccccc1F)OCc1cc(=O)n2ccsc2n1`, the “activity change, negative = inhibition” value was inactive: 5.97%.
With `COc1ccccc1C(=O)Nc1nnc(SCc2cc(=O)c3cc(Cl)ccc3[nH]2)s1` the “activity change, negative = inhibition” value was inactive: -5.83%.
In the case of `COc1ccc(OC)c(NC(=O)Cn2ccc3ccccc3c2=O)c1`, the “activity change, negative = inhibition” value was inactive: 2.32%.
With `COc1ccc(NC(=O)c2c(-c3ccc(C)cc3)nnc3ccccc23)cc1Cl` the “activity change, negative = inhibition” value was inactive: -0.562%.
With `CCN(CC)C(=O)Cn1c(=O)n(-c2ccc(OC)cc2OC)c(=O)c2c(C)c(C(=O)N(CC)CC)sc21` the “activity change, negative = inhibition” value was inactive: -0.216%.
In the case of `Cc1ccc(C)c(N2CCN(C(=O)C3CCCN(S(=O)(=O)c4cccc5nsnc45)C3)CC2)c1` (stereo not drawn), the “activity change, negative = inhibition” value was inactive: -11.5%.
With `O=S(=O)(c1ccccc1)c1nc(-c2ccc(Cl)cc2Cl)oc1N1CCCCC1` the “activity change, negative = inhibition” value was inactive: -14.9%.
With `Cc1ccc(CN2CCN(C3CCN(C(=O)c4ccccc4)CC3)C(=O)C2=O)cc1` the “activity change, negative = inhibition” value was inactive: -11.2%.
In the case of `Cc1ccc(C(=O)Nc2cccc(O)c2)cc1S(=O)(=O)N1CCCCCC1`, the “activity change, negative = inhibition” value was inactive: 8.1%.
For `CCN(CC)CCCNC(=O)c1cn(CC)c2ccc(S(=O)(=O)N3CCc4ccccc4C3)cc2c1=O`, the “activity change, negative = inhibition” value was inactive: 1.56%.
With `COc1ccc(CCNC(=O)c2ccc3c(c2)N(Cc2cc(C)ccc2C)C(=O)c2ccccc2S3=O)cc1OC` (stereo not drawn) the “activity change, negative = inhibition” value was inactive: -2.83%.
In the case of `CCCCOc1ccc(CNC(=O)Cc2ccc(NC(=O)N3CCCCc4ccccc43)cc2)cc1`, the “activity change, negative = inhibition” value was inactive: -1.53%.
For `COc1ccc(-c2nc(SCC(=O)N3CCN(c4ccc(F)cc4)CC3)n[nH]2)cc1`, the “activity change, negative = inhibition” value was inactive: -2.44%.
In the case of `CCn1c(=O)n(-c2ccc(F)cc2)c(=O)c2sc3ccccc3c21`, the “activity change, negative = inhibition” value was inactive: 8.54%.
With `CC(C)(C)OC(=O)N1CCC(c2c(C(=O)N3CCN(c4ccccc4)CC3)cnn2-c2ccccc2)CC1` the “activity change, negative = inhibition” value was inactive: -7.7%.
For `CC(=O)N1CCC2(CC1)OC(=O)C(C)=C2C(=O)Nc1cc(C)ccc1C`, the “activity change, negative = inhibition” value was inactive: -0.434%.
For `Cc1cc(Br)ccc1NC(=O)Cn1cnc2sc(C)c(S(=O)(=O)N3CCN(C)CC3)c2c1=O`, the “activity change, negative = inhibition” value was inactive: 5.63%.
For `COC(=O)c1sc2cccc(F)c2c1S(=O)(=O)Nc1ccc(N(C)C)cc1`, the “activity change, negative = inhibition” value was inactive: -18.5%.
For `CCCN(C(=O)c1cc2ccc3cccnc3c2[nH]1)c1ccc(F)cc1`, the “activity change, negative = inhibition” value was inactive: 4.13%.
With `CC(=O)Nc1ccc(-n2c(CCC(=O)O)ccc2-c2ccc(Br)cc2)cc1` the “activity change, negative = inhibition” value was inactive: 0.708%.
With `COc1ccc(Cl)cc1NC(=O)Cn1c(=O)n(Cc2cccs2)c(=O)c2cccnc21` the “activity change, negative = inhibition” value was inactive: -0.32%.
In the case of `COc1ccc(CNC(=O)Cc2c(C)c3c(cc(C)c4c(C)coc43)oc2=O)cc1OC`, the “activity change, negative = inhibition” value was inactive: -0.0726%.
With `Cc1nc2cccnc2n1C1CCN(S(=O)(=O)N(C)C)CC1` the “activity change, negative = inhibition” value was inactive: 2.25%.
In the case of `COc1ccc(Br)c2c1-c1nc(NC(=O)c3ccccc3F)sc1C2`, the “activity change, negative = inhibition” value was inactive: -7.95%.
In the case of `CCc1ccc(-c2[nH]nc3nc(-c4ccc(OC)cc4)cc(C(=O)NCCCOC)c23)cc1`, the “activity change, negative = inhibition” value was inactive: -9.39%.
With `COC(=O)c1ccccc1NC(=O)c1ccc(COc2cc(C)cc(C)c2)o1` the “activity change, negative = inhibition” value was inactive: -1.72%.
With `COc1ccc(CCCc2nnc(SCC(=O)Nc3cc(C)ccc3C)o2)cc1` the “activity change, negative = inhibition” value was inactive: -1.28%.
With `Cc1nc2ccc(S(=O)(=O)N(CC(=O)Nc3cccc(Cl)c3)Cc3ccccc3)cc2s1` the “activity change, negative = inhibition” value was inactive: 1.36%.
With `Cc1nn(CC(=O)NCc2ccc(N(C)C)cc2)c(=O)c2c(C)n(-c3ccc(Cl)cc3)nc12` the “activity change, negative = inhibition” value was inactive: -11.6%.
For `CCOc1ccc(NC(=O)CCn2c(=O)c3cccn3c3cccnc32)cc1`, the “activity change, negative = inhibition” value was inactive: 1.09%.
For `Cc1nn(-c2ccc(F)cc2)c(-n2cccc2)c1C(=O)N1CCN(c2ccccc2)CC1`, the “activity change, negative = inhibition” value was inactive: -12.3%.
With `Cc1cc2nn(-c3ccccc3)nc2cc1NC(=O)COc1ccc(Cl)cc1` the “activity change, negative = inhibition” value was inactive: -13.9%.
For `CCOc1ccc(Cn2nnc(C(=O)Nc3cccc(SC)c3)c2N)cc1`, the “activity change, negative = inhibition” value was inactive: 4%.
In the case of `CCCN(CCC)C(=O)Cn1c(=O)n(-c2ccc(C)c(C)c2)c(=O)c2c3c(sc21)CCCCC3`, the “activity change, negative = inhibition” value was inactive: 2.95%.
For `Cc1cc(NC(=O)c2cc(-c3cccc(Cl)c3)on2)nn1Cc1ccc(Cl)cc1`, the “activity change, negative = inhibition” value was inactive: 2.37%.
With `CC1CCC(NC(=O)CCc2cn(Cc3ccccc3Cl)c3ccccc23)CC1` (stereo not drawn) the “activity change, negative = inhibition” value was inactive: 3.56%.
With `Cc1ncc(CO)c2c1Oc1nc(-c3ccc(F)cc3)nc(SCC(=O)N3CCCCC3)c1C2` the “activity change, negative = inhibition” value was inactive: 3.74%.
